# Data: PubChem BioAssay AID588855 (National Center for Advancing Translational Sciences (NCATS), 2011)
# About 5,000 (1.2%) of roughly 410,000 compounds were called active. The shares of active, inactive and inconclusive entries below differ from those in the screen. Calls follow the shape of the dose curve; as a rule, active = well fitted inhibition curve with a large enough effect; inconclusive = small, poorly fitted or top-dose-only effect; inactive = no such curve, though single readings can be large or run the other way. Potencies beside an inconclusive call are fits to weak or partial responses and may not hold up.
# Assay: qHTS for Inhibitors of TGF-b; also: nearly all actives have a fitted effect of over 65% in size
# Settings: HepG2 CAGA-GFP TGF-b/SMAD3 reporter, GFP fluorescence, 18 h, TGF-beta stimulated, 500 pg/mL final; series mostly up to 46.1 µM; activity, negative = inhibition: at the top concentration
# Summary of the method: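 Inhibition of TGF-beta-driven CAGA-GFP reporter expression in HEPG2 cells is measured by cellular GFP fluorescence after 18 h stimulation with 500 pg/mL recombinant TGF-beta in 1% FBS medium at 37 degrees C.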
# % is scaled to controls: 0 for no effect and ±100 for the full control effect; potency is read from the fitted curve at half-maximal effect; tags tell the direction and shape of the fitted curve.
SMILES,Potency,"activity, negative = inhibition"
C[C@@H]1CN([C@H](C)CO)C(=O)c2cc(NC(=O)Nc3ccc(C(F)(F)F)cc3)ccc2O[C@H]1CN(C)S(=O)(=O)c1ccc(Cl)cc1,"inconclusive: 14.1 µM [inhibitor, single point]",–
CCCCCNCC(=O)Nc1cccc(C(=O)Nc2cccc(C(F)(F)F)c2)c1,"inconclusive: 5.01 µM [inhibitor, full curve, poor fit]",–
CC(C)(C)NC(=O)C(c1ccc(F)cc1)N(Cc1cccs1)C(=O)c1ccc(CN2CCOCC2)o1 (centres undefined),–,inactive: -19.4%
c1ccc(CCNc2ccnc3cc4ccccc4cc23)cc1,"inconclusive: 14.1 µM [inhibitor, partial curve, poor fit]",–
CCc1ccccc1NC(=O)N1CCc2ccccc2C1,–,inactive: -3.43%
CCOc1ccccc1NC(=O)N1CCN(Cc2cc(=O)n3nc(-c4ccc(C)cc4)sc3n2)CC1,"inconclusive: 4.47 µM [inhibitor, single point]",–
COc1ccc(CNC(=S)Nc2ccc(F)c(Cl)c2)cc1,"inconclusive: 22.4 µM [inhibitor, single point]",–
C[C@@H]1CN([C@@H](C)CO)S(=O)(=O)c2ccc(Br)cc2O[C@H]1CN(C)C(=O)Nc1ccc2c(c1)OCO2,–,inactive: -10.9%
COc1ccccc1NC(=O)NNC(=O)c1cc2ccccc2cc1O,"inconclusive: 35.5 µM [inhibitor, single point]",–
CN(Cc1ccccc1F)C(=O)COc1ccc(C(=O)c2ccccc2)cc1,"inconclusive: 35.5 µM [inhibitor, single point]",–
CCOC(=O)C1=CCC(c2cccc(C)c2)N(S(=O)(=O)c2ccc(C)cc2)C1 (centres undefined),"inconclusive: 35.5 µM [inhibitor, single point]",–
Cc1cccc([C@H]2[C@@H]3C=CC[C@@H](C)[C@@H]3C(=O)N2Cc2ccccc2)c1,"inconclusive: 20 µM [inhibitor, partial curve, poor fit]",–
CC(=O)N(C)C[C@@H]1Oc2ncc(Br)cc2C(=O)N([C@H](C)CO)C[C@@H]1C,–,inactive: 5.25%
Cc1cc(C)cc(NC(=O)CCNS(=O)(=O)c2ccc3c(c2)oc(=O)n3C)c1,"inconclusive: 6.31 µM [inhibitor, single point]",–
O=C1c2ccccc2S(=O)(=O)c2cc(N3CCN(C(=O)c4ccccc4)CC3)ccc21,–,inactive: -2.3%
COc1ccc(S(=O)(=O)N2CCCCCC2)cc1C(=O)N(C)Cc1ccc(Cl)cc1Cl,active: 15.8 µM,–
Cc1ccc(C(=O)O)cc1-n1c(C)cc(C=O)c1C,–,inactive: -11.9%
Cc1ccc(NC(=O)Cn2c(=O)nc(-c3ccccc3F)c3cc(Cl)ccc32)c(Br)c1,–,inactive: -22.5%
COc1ccccc1NC(=O)COC(=O)CCn1c(C)csc1=O,–,inactive: -15.9%
O=S(=O)(NCCc1ccccn1)c1cccs1,"inconclusive: 12.6 µM [inhibitor, partial curve, poor fit]",–
Cn1c(=O)c2c(nc(CN3CCN(c4cccc(Cl)c4)CC3)n2CCc2ccccc2)n(C)c1=O,"inconclusive: 35.5 µM [inhibitor, single point]",–
COc1cc(C(=O)Nc2sc3c(c2C(=O)NCc2ccco2)CCCC3)cc(OC)c1OC,–,inactive: 22%

SMILES,Potency,"activity, negative = inhibition"
CCOC(=O)[C@H]1Nc2ccc(Cl)cc2[C@@H]2[C@H]1C1CC(c3ccccc31)N2C(=O)OCc1ccccc1 (some centres undefined),"inconclusive: 6.31 µM [inhibitor, partial curve, poor fit]",–
CC(C)Nc1ncnc2ccc(Br)cc12,–,inactive: -6.73%
O=C(Nc1ncc(Cc2ccc(SC(F)F)cc2)s1)c1ccc(OC(F)F)cc1,"inconclusive: 0.224 µM [inhibitor, full curve, poor fit]",–
COc1cccc(Cn2cnc3c(NS(=O)(=O)c4ccc(Cl)cc4)c(C)c(C)cc32)c1,"inconclusive: 10 µM [inhibitor, partial curve]",–
COc1ccc(C(=O)c2ccc(Br)cc2)c2ccccc12,–,inactive: -0.601%
O=C(c1ccc(CS(=O)c2ccccc2Cl)o1)N1CCN(c2ccccc2F)CC1 (centres undefined),"inconclusive: 10 µM [inhibitor, partial curve, poor fit]",–
Cc1c(C(=O)NCCN2CCOCC2)oc2ccc(Br)cc12,–,inactive: 16.6%
C=CCn1c(SCC(=O)N2CCN(c3ccc(F)cc3)CC2)nnc1-c1ccco1,–,inactive: -21.8%
O=C(c1cc(COc2cccc3cnccc23)on1)N1CCC(c2ccccc2Cl)C1 (centres undefined),active: 20 µM,–
O=c1cc(-c2ccccc2)cc(-c2ccccc2)n1CCCO,"inconclusive: 11.2 µM [inhibitor, partial curve, poor fit]",–
CCC(Sc1nc(C)cc(=O)[nH]1)C(=O)Nc1sc2c(c1C#N)CCCC2 (centres undefined),–,inactive: -31.5%
CCc1ccc(S(=O)(=O)c2cn(C)c3cc(N4CCN(CC)CC4)c(F)cc3c2=O)cc1,–,inactive: -29.7%
N#CC1=C2C=CC=CN2CC1=O,"inconclusive: 35.5 µM [inhibitor, single point]",–
Cc1ccc(-n2c(C)cc(C(=O)COc3cccnc3[N+](=O)[O-])c2C)cc1,"inconclusive: 28.2 µM [inhibitor, single point]",–
Cc1cc(C)c2c(=O)n(CC(=O)Nc3ccc(Br)c(C)c3)sc2n1,"inconclusive: 20 µM [inhibitor, single point]",–
Cc1ccccc1C1CC(=O)c2ccccc2C1C (centres undefined),–,inactive: -3.32%
CCn1cc(/C=C/C(=O)NCc2c(C)nn(C)c2C)cn1,–,inactive: 1.52%
CC12CCCC(C(C#N)C(N)=O)(C1)NC(=O)C2C#N (centres undefined),"inconclusive: 3.16 µM [inhibitor, full curve]",–
O=C(c1ccc(CSc2nc3ccncc3n2Cc2ccccc2F)cc1)N1CCCCCC1,"inconclusive: 14.1 µM [inhibitor, partial curve, poor fit]",–
CCC(=O)NC(=S)Nc1ccc(NC(=O)COc2ccc([N+](=O)[O-])cc2)cc1,"inconclusive: 15.8 µM [inhibitor, single point]",–
COc1ccc(OCCOC(=O)CNS(=O)(=O)c2ccc(SC)c([N+](=O)[O-])c2)cc1,–,inactive: 10.8%
O=C(Nc1nc(-c2ccccc2)cs1)C1c2ccccc2Oc2ccccc21,"inconclusive: 10 µM [inhibitor, single point]",–
